In PubChem BioAssay AID1645887 (National Center for Advancing Translational Sciences (NCATS), 2021):
Values joined by “and” are separate entries in the source; they are usually repeats but may differ in a detail not shown here. Equal entries are not always repeated. Out of some 16,000 compounds screened, about 40 (0.2%) were called active. About 1% were inconclusive and are not listed. Calls follow the shape of the dose curve; as a rule, active = well fitted activation curve with a large enough effect; inconclusive = small, poorly fitted or top-dose-only effect, or another doubt; inactive = no such curve, though single readings can be large or run the other way. This is one part of the list. Starred links: 1 amine or outer side, 2 acyl side, 3 side chain; linkers in the order of their positions; H or OH if unused. Positions of bridges follow the written chain, without caps; N, C: chain ends. Non-standard residues stand in square brackets, D forms with d. Residues, ends and D or L forms follow the SMILES beside them. Chains are numbered I, II in the order given. Actinocin(9to1) = Cc1c2oc3c(C)ccc(C(=O)[*:1])c3nc-2c(C(=O)[*:2])c(N)c1=O; aThr = C[C@H](O)[C@H](N)C(=O)O; NMeV = CN[C@H](C(=O)O)C(C)C; Sar = CNCC(=O)O

Molecular target: Rap guanine nucleotide exchange factor 4 (Homo sapiens) (UniProt Q8WZA2)
Test: Validation qHTS for agonist of cAMP-regulated guanine nucleotide exchange factor 4 (EPAC2);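 also: exchange makes BODIPY-GDP fluorescence drop when released from Rap1B; series mostly up to about 150 µM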
Conditions: EPAC2 Rap1B BODIPY-GDP exchange, fluorescence; activation: active compounds read high
Procedure, shortened: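 Signal normalized against 6.5 mM cAMP as agonist control. Mix of EPAC2 (100 nM), RAP1B-BODIPY-GDP (250 nM) and GDP (50 uM) was read kinetically at 480/540 nm, every 5 min over 30 min, after 5 min room-temperature incubation with compound.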
% is scaled to controls: 0 for no effect and ±100 for the full control effect.

Chain of UniProt Q8WZA2 (Q8WZA2 whole entry, looked up): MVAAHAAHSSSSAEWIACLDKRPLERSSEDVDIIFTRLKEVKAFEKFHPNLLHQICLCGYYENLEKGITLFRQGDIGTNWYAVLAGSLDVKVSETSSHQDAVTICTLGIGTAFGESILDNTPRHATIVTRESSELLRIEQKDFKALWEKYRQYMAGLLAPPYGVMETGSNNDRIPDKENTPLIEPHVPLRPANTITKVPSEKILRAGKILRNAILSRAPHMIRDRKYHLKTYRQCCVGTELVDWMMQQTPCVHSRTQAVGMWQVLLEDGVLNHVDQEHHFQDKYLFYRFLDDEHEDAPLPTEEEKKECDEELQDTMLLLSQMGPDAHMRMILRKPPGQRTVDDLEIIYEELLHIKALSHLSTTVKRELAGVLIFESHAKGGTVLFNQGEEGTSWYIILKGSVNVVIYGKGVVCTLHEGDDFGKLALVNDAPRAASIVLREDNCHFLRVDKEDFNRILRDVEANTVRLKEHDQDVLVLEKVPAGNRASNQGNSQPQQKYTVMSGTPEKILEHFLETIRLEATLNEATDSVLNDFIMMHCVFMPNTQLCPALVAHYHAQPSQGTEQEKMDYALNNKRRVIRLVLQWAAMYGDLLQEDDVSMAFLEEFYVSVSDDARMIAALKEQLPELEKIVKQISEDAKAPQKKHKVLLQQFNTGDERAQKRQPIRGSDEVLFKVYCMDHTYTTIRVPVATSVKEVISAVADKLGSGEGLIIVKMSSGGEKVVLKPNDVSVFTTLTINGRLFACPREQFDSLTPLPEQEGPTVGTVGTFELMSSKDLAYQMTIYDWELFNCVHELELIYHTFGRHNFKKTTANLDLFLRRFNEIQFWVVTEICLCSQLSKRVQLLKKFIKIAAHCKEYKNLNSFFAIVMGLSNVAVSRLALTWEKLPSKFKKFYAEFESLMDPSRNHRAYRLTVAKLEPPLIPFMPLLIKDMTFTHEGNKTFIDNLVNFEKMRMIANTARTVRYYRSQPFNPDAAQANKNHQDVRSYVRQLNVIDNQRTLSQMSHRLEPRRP

activation, inactive:
O=c1cnc2cnc(Oc3ccccc3)nc2n1CCc1ccccc1 -13.2%
CCC(=O)OC1C2CC3=C4CC(=O)OC(c5ccoc5)[C@]4(C)CCC3[C@@](C)(C2=O)C(CC(=O)OC)C1(C)C (stereo not given in full) -17.6%
C[C@]12CCC(=O)C=C1CC[C@@H]1[C@@H]2[C@@H](O)C[C@@]2(C)[C@H]1CC[C@]2(O)C(=O)CO -26.2%
Cc1cccc2[nH]cc(/C=C3/C=Nc4ccccc43)c12 -18.3%
COCC(=O)N1CCC2(CCN(Cc3cc(C(F)(F)F)cc(C(F)(F)F)c3)CC2)CC1 -24.5%
COc1cccc(-c2cncnc2NCc2cccs2)c1 -19.5%
O=C(NCCc1cccnc1)c1cnn(-c2ncc3c(n2)-c2ccccc2CC3)c1C1CC1 -7.38%
CCCC(=O)Nc1nc2c(ncn2[C@@H]2O[C@H]3COP(=O)(O)O[C@@H]3[C@@H]2OC(=O)CCC)c(=O)[nH]1 -2.88%
CCCc1cc(=O)[nH]c(=S)[nH]1 3.15% and 3.3%
COc1ccc(C(=O)N2CCC3(CC2)CN(c2ccccn2)C3)cc1 -4.93%
Cc1ccc(CN2[C@H]3CCCC[C@@H]3OCCS2(=O)=O)cc1 -16.1%
O=S(=O)(N(Cc1ccccc1)[C@H](CO)Cc1ccccc1)N(Cc1ccccc1)[C@H](CO)Cc1ccccc1 -1.29%
N#CCCn1c(=O)c(-c2ccccc2)nc2cnc(OCc3ccccc3)nc21 -38.8%
Cc1onc(-c2ccccc2)c1-c1ccc(S(N)(=O)=O)cc1 6.78%
O=C(Nc1ccccc1)N1CCCC2(CCN(C(=O)c3cccc(F)c3)CC2)C1 -19.3%
CC1=C(CC(=O)O)c2cc(F)ccc2/C1=C\c1ccc(S(C)=O)cc1 (stereo not given) -4.44% [middle of 4 runs]
O=c1cnc2cnc(N3CCOCC3)nc2n1C1CC1 2.27%
CCC(=O)N[C@@H]1c2ccccc2C2(CCN(Cc3ccccn3)CC2)[C@H]1OC -10.2%
CC(=O)N1CCC2(CCN(Cc3ccc(C#N)cc3)CC2)CC1 -4.05%
CC[N+]1(CC)CCC(=C(c2ccccc2)c2ccccc2)C1C (stereo not given) -9.8%
COCC(=O)N1CCC2(CC1)CN(C(c1ccccc1)c1ccccc1)C2 8.37%
Cc1noc(C)c1-c1cncnc1-n1ccnc1 -10.3%
O=c1cnc2cnc(OCc3ccccc3)nc2n1CCc1ccccc1 2.27%
C[C@H](CCC(=O)NCCS(=O)(=O)O)C1CC[C@H]2C3CC[C@@H]4C[C@H](O)CC[C@]4(C)C3C[C@H](O)[C@]12C (stereo not given in full) -6.07%
CSc1ncccc1C(=O)N1CCc2nnc(C(NC(=O)c3ccoc3)C(C)C)n2CC1 (stereo not given) -8.29%
COCCNc1cc(-c2ccccc2C)ncn1 -23%
COC(=O)c1c(OCc2ccccn2)cc(=O)n2c1CCN(C(=O)c1n[nH]c3c1CCCC3)CC2 -6.32%
CN1CCCC2(CCN(C(=O)c3cc(C(F)(F)F)cc(C(F)(F)F)c3)CC2)C1 -8.94%
COc1ccc(-c2oc3cc(O[C@@H]4OC(CO)C(O)C(O)C4O)c(OC)c(O)c3c(=O)c2OC)cc1O (stereo not given in full) -19.7%
COc1cccc(Nc2ncc3nc(-c4cccs4)c(=O)n(CCC#N)c3n2)c1 6.57%
C[C@H]1CC2C3CCC4=CC(=O)C=C[C@]4(C)[C@@]3(Cl)[C@@H](O)C[C@]2(C)[C@@]1(O)C(=O)CO (stereo not given in full) -42.1%
CC1O[C@@H](O[C@@H]2C(O)C[C@H](O[C@@H]3C(O)C[C@@H](OC4CC[C@@]5(C)C6CC(O)[C@@]7(C)C(C8=CC(=O)OC8)CC[C@@]7(O)C6CC[C@@H]5C4)OC3C)OC2C)CC(O)[C@H]1O (stereo not given in full) 4.41%
COc1ccc(NC2=Nc3ccccc3N[C@@]23C[C@H]2CCCC(=O)N4CC[C@@H](C3)[C@@H]24)cc1 -20.1%
C[N+]1(CCCCC[N+]2(C)CCCC2)CCCC1 -8.77% and -0.0869% and -7.72%
Cc1nc2cncnc2n(Cc2ccc(F)cc2)c1=O -7.41%
COC(=O)[C@@H]1CCCN1Cc1ccc2c(c1)CN(Cc1cc(OC)c3c(c1)OCO3)CCO2 -4.02%
CN(C)Cc1ccccc1-c1ccc2ncnc(NCc3ccccc3)c2c1 -2.71%
CCCN[C@@H]1C(=O)N2C(C(=O)OCCC)=C(C)CS[C@H]12 -24.4%
CN(Cc1cnc2ccccn12)C(=O)c1cc(NC(=O)c2ccccc2)cc2ncn(C3CCCC3)c12 -4.23%
CO/N=C(\C(=O)N[C@@H]1C(=O)N2C(C(=O)OCOC(=O)C(C)(C)C)=C(/C=C\c3scnc3C)CS[C@H]12)c1csc(N)n1 -30.4%
COc1ccc(CN2CCOc3ccc(CN4CCC(Oc5cccnc5)CC4)cc3C2)c(F)c1 -10.7%
Cc1c2oc3c(C)ccc(C(=O)N[C@@H]4C(=O)N[C@@H](C(C)C)C(=O)N5CCC[C@@H]5C(=O)N(C)CC(=O)N(C)[C@@H](C(C)C)C(=O)O[C@H]4C)c3nc-2c(C(=O)N[C@@H]2C(=O)N[C@@H](C(C)C)C(=O)N3CCC[C@@H]3C(=O)N(C)CC(=O)N(C)[C@@H](C(C)C)C(=O)O[C@H]2C)c(N)c1=O (I: [aThr]V[dP][Sar][NMeV] / II: [aThr]V[dP][Sar][NMeV]; ester I:1-I:C, II:1-II:C; linker I:N-II:N via Actinocin(9to1)) -16.7%
CCCCC(=O)O 1% and 4.78%
CN(C)c1ccc(/C=C/c2cc(N(C)C)nc3ccccc23)cc1 -22.1%
c1ccc2c(Cc3c[nH]c4ccccc34)c[nH]c2c1 11.3%
Cc1sc(N)c(C(=O)c2cccc(C(F)(F)F)c2)c1C -27.7%
COc1ccc(OC)c2c(=S)c3ccccc3[nH]c12 -10.2%
CN=C1N[C@H](c2ccccc2)N(c2ccccc2)S1 -21.1%
COc1cccc(Cn2c(=O)c(-c3cc(F)cc(F)c3)nc3cncnc32)c1 -2.55%
Nc1nc(OCc2ccccc2)c2[nH]cnc2n1 -9.95%
Cn1cnc2nc(NCCO)nc(NCc3ccccc3)c21 -9.78%
O=c1[nH]c(=O)c2[nH]c(=O)[nH]c2[nH]1 -2.36% and 6.35%
COCC(=O)Nc1cc(C(=O)N2CC3CCCC2C3)c2c(c1)nc(-c1ccncc1)n2C (stereo not given) -2.61%
Cc1cccc2c(N3CCCC3)nc(CNS(=O)(=O)c3ccccc3F)nc12 -0.576%
O=C(Nc1cccc(F)c1)N1CCCC2(CCN(C(=O)c3ccncc3)CC2)C1 -13.2%
CC(=O)OCC(=O)C1CCC2C3CC=C4CC(O)CC[C@@]4(C)C3CC[C@]12C (stereo not given in full) -8.58%
CCCCC(=O)O[C@H]1CC[C@H]2[C@@H]3CCc4cc(O)ccc4[C@H]3CC[C@]12C -37.7%
Cc1noc(C)c1-c1nccc(NC2CC2)n1 -2.86%
c1ccc2sc(SSc3nc4ccccc4s3)nc2c1 -4.43%
c1ccc(CNc2ncncc2-c2cccnc2)cc1 -21.4%
COC(=O)Nc1nc2ccc(C(=O)c3ccccc3)cc2[nH]1 -6.89% and -9.89%
COc1cccc(-c2cncnc2NCc2cccc(C)c2)c1 -11.1%
NC(=O)C1c2ccccc2CCc2ccccc21 -0.466%
Cn1c(NCCN(CCO)CCCc2ccc([N+](=O)[O-])cc2)cc(=O)n(C)c1=O -33%
N=C(N)SCCc1ccc(OCc2ccc([N+](=O)[O-])cc2)cc1 8.37%
CC[C@@H]1[C@H]2CCCC(=O)N3CC[C@@H](C[C@@H]1Nc1ccccc1)[C@@H]23 -28.1%
O=C(OC[C@H]1O[C@@H](OC(=O)c2cc(O)c(O)c(OC(=O)c3cc(O)c(O)c(O)c3)c2)[C@H](OC(=O)c2cc(O)c(O)c(OC(=O)c3cc(O)c(O)c(O)c3)c2)[C@@H](OC(=O)c2cc(O)c(O)c(OC(=O)c3cc(O)c(O)c(O)c3)c2)[C@@H]1OC(=O)c1cc(O)c(O)c(OC(=O)c2cc(O)c(O)c(O)c2)c1)c1cc(O)c(O)c(OC(=O)c2cc(O)c(O)c(O)c2)c1 -28.4%
N=C(N)c1ccc(OCCCCCOc2ccc(C(=N)N)cc2)cc1 -5.03% and -5.06%
COc1ccc(C(=O)N2CCC3(CCN(C(=O)Nc4ccccc4)CC3)CC2)cc1 -1.67%
COc1cccc(CN2CCCC(c3nc(C)ncc3-c3ccc(F)cc3)C2)c1OC (stereo not given) -1.16%
CCn1nc(C)cc1C(=O)NCCN1Cc2ccccc2OC(c2ccccc2F)C1 (stereo not given) -3.52%
Fc1ccc(C(c2ccc(F)cc2)N2CCN(C/C=C/c3ccccc3)CC2)cc1 -6.26% and -6.59% and -5.37%
COC(=O)C1=C(C)NC(C)=C(C(=O)OCC(C)=O)C1c1ccccc1[N+](=O)[O-] (stereo not given) 2.84%
c1ccc2c(NCCN3CCOCC3)nc(-c3ccoc3)nc2c1 -5.05%
CN1CCc2c(c3ccccc3n2Cc2ccccc2)C1 -8.51% and -2.42%
